Measured values: paper PMC6919601, “Identification of Plasmodium dipeptidyl aminopeptidase allosteric inhibitors by high throughput screening” (PLoS ONE, 2019)
Several values for one entry are separate records, joined by “and”; a condition that tells them apart may be missing. Equal entries are not always repeated. In all, about 110,000 compounds went through this assay and about 230 (0.21%) showed an effect of 50% or more. The list shows a part of the results.

target: DPAP1 (Plasmodium falciparum, UniProt Q8IIJ9); assay: primary screen, percent inhibition; read by cleavage of a fluorogenic dipeptide substrate; higher = more effect of the substance; design: species or system P. falciparum D10 trophozoite lysates; single well
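Also: 30 min substrate incubation versus DMSO and 10 µM JCP410 controls.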

Chain of DPAP1 (Q8IIJ9 whole entry, looked up): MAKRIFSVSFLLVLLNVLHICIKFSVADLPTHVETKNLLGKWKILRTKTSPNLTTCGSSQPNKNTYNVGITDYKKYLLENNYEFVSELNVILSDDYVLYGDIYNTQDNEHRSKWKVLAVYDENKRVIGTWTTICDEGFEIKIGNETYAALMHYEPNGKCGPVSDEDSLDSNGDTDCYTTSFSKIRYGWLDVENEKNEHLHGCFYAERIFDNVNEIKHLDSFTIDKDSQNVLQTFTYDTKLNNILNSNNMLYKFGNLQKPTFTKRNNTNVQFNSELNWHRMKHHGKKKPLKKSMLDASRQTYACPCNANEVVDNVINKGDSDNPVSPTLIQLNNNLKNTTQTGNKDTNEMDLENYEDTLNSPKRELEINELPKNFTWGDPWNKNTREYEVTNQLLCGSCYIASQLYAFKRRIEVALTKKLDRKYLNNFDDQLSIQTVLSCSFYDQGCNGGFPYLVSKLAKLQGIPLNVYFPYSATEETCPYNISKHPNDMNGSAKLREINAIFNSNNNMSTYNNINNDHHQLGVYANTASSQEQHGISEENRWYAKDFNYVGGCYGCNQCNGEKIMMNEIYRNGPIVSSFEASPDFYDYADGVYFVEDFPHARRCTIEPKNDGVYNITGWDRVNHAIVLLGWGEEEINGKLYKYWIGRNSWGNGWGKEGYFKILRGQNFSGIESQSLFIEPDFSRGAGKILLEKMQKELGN

Compound	% Inhibition @ 10 uM
Nc1cc(-c2ccccc2)nc2cc(-c3ccccc3)nn12	2.65%
Cc1ccc(S(=O)(=O)/N=C2/C=C(Sc3nc[nH]n3)C(=O)c3ccccc32)cc1	1.74%
COc1ccc(CN2C(=O)c3cccnc3C2=O)cc1S(=O)(=O)NCCCc1ccccc1	-6.14%
CCOC(=O)C1=C(C)OC(N)=C(C#N)C1c1ccc(F)c(Br)c1 (stereo not drawn)	-8.76%
CC1(C)CC(=O)CC(O)(C(F)(F)F)O1 (stereo not drawn)	-0.216%
COc1ccc(NC(=O)c2c(NC(=O)CN3CCCC(C)C3)sc3c2CCC3)c(OC)c1 (stereo not drawn)	7.31%
CCOC(=O)N1CCC(NCCN2CCCCC2)CC1	-4.75%
N#CC1=C(N)Oc2c(O)nc(S)nc2C1c1cccc([N+](=O)[O-])c1 (stereo not drawn)	-6.82%
COCCNC(=O)C1c2cc(OC)c(OC)cc2C(=O)N(C)C1c1cccnc1 (stereo not drawn)	-2.95%
COCc1cc(C2C(C#N)=C(N)Oc3[nH]nc(C)c32)ccc1OC (stereo not drawn)	-5.48%
O=C(CSCc1ccccc1Cl)NCCc1ccc(Cl)cc1	2.9%
COc1cc(C=C2C(=O)OC(C)(c3ccccc3)OC2=O)ccc1OCc1cccc(C(=O)O)c1 (stereo not drawn)	3.6%
COc1ccc(C2=CC(c3sccc3C)n3nnnc3N2)cc1 (stereo not drawn)	4.86%
CCOC(=O)c1oc2ccc3c(c2c1C)C(=O)CC1(CCN(C(=O)OCC)CC1)O3	-1.75%
O=C(c1cnn2c(C(F)(F)F)cc(-c3ccco3)nc12)N1CCOCC1	1.65%
CC(C)c1ccc(N(CC(=O)N2CCCCC2)S(=O)(=O)c2ccccc2)cc1	-1.12%
CC1(C)CC2=Nc3[nH]nc(-c4ccccc4)c3C(c3ccccc3)C2=C(O)C1 (stereo not drawn)	4.17%
O=C(CSc1nnc(-c2cccnc2)o1)NCc1ccccc1	0.029%
COCCCNC(=O)Cn1ncc2ccc(Cl)cc21	-2.88%
CC(=O)Nc1nonc1-c1nc2ccccc2n1CCC#N	3.46%
CN(C)CCCN1C(=O)CSC1c1ccc(Cl)c(Cl)c1 (stereo not drawn)	-7.54%

Compound	% Inhibition @ 10 uM
Nc1nnc(-c2ccc(O)cc2)s1	6.63%
NC(=O)C1CCN(C(=O)Cn2cccc2C(=O)c2ccccc2)CC1	2.76%
NC(=O)C1CCN(C2CCC(c3ccccc3)CC2)CC1 (stereo not drawn)	1.88%
CCOc1ccccc1NC1=C(Cl)C(=O)N(c2ccccc2)C1=O	2.38%
Oc1cc(C(F)(F)F)nc(-c2ccccc2)n1	0.0538% and -1.97%
O=C(NC1CCN(Cc2ccccc2)CC1)c1cc2ccc3cccnc3c2[nH]1	5.73%
Cc1ccc(-c2cc(-c3ccccc3)nc(N3CCOCC3)n2)cc1	-0.239%
N#Cc1ccccc1Cn1c(=O)n(CCC(=O)NCc2ccc3c(c2)OCO3)c(=O)c2sccc21	-3.12%
O=C1CCCC(=O)C1=CNc1ccc(NC=C2C(=O)CCCC2=O)cc1	-4.68%
CN(C)CCNC(=O)c1ccc(Cn2c(SCc3ccccc3)nc3cccnc32)cc1	3.95%
NS(=O)(=O)c1ccc(NC(=O)c2ccccc2Br)cc1	-2.81%
O=c1oc2ccccc2c2c1C(c1ccccc1)c1c(c3ccccc3oc1=O)O2	12.5%
CC(C)C[C@H](NC(=O)OCc1ccccc1)C(=O)NC(C#N)c1ccc(Cl)s1 (stereo partly drawn)	4.63%
COc1ccccc1C(=O)Nc1nnc(S(=O)(=O)N(C)Cc2ccc(F)cc2)s1	-2.68%
C=CCOc1ccc(C2c3c(oc4ccccc4c3=O)C(=O)N2CCCN2CCOCC2)cc1OC (stereo not drawn)	0.628%
COC(=O)Nc1ccc(S(=O)(=O)NCCc2c[nH]c3ccc(OC)cc23)cc1	6.43%
COc1ccc(C2CC(=O)N(C)C3=C2C(=O)CC(C)(C)C3)cc1OC (stereo not drawn)	2.79%
Cc1cc(C)c(C(=O)Nc2ccccc2)s1	2.76%
Cc1ccc(C)n1-c1ccc(Cl)c(C(=O)O)c1	7.42%
COc1ccc(-c2cc(-c3ccc(C)cc3)nc(N3CCNCC3)n2)cc1OC	1.88%
c1cncc(C(c2c[nH]c3ccccc23)c2c[nH]c3ccccc23)c1	92.4%

Compound	% Inhibition @ 10 uM
CC1CCCCC1NC(=O)CCn1ccc2cc(S(=O)(=O)N3CCCC3)ccc21 (stereo not drawn)	4.32%
N=C(NOC(=O)C1CCCCC1)c1ccccn1	-7.45%
O=C(Nc1ccc2c3c1C1C=CCC1CN3CC1CC=CC21)c1ccccc1 (stereo not drawn)	2.4%
Cc1sc(NC(=O)C2CCC2)c(C#N)c1-c1ccccc1	2.36%
Cc1cc(C)c(C(=O)C2=C(O)C(=O)N(c3ccccn3)C2c2cccnc2)c(C)c1 (stereo not drawn)	-5.69%
O=C(CN1C(=O)c2ccccc2Sc2ncccc21)N1CCC(N2CCCCC2)CC1	-12.2%
C=C1Cn2c(nc3c2c(=O)n(C)c(=O)n3C)S1	-1.92%
Cc1ccccc1Cn1nnc(-c2ccc(F)cc2)n1	-2.15%
COc1ccc(-n2cccc2/C=C2\C(=N)N3N=CSC3=NC2=O)cc1Cl	0.208%
CCCN1CCC(N2CCN(c3ccccc3)CC2)CC1	-3.5%
CC(C)C[C@H](NC(=O)c1ccc(CNC(=O)OC(C)(C)C)cc1)C(=O)N[C@@H](CCc1ccccc1)C(=O)COCc1ccccc1	-3.97%
CC(C)(Oc1ccc(Cl)cc1)C(=O)N1CCN(c2ccccn2)CC1	-2.65%
N#CCNC(=O)C1(NC(=O)OCc2ccccc2)CCCCCC1	-0.207%
CCOc1ccc(S(=O)(=O)/N=C2\C=CC(=O)c3ccccc32)cc1	9.56%
CS(=O)(=O)N(CC(=O)NCc1ccccc1)c1cccc(Cl)c1	-0.185%
COc1ccc(Cn2c(C(=O)O)c(CNCC3CCCO3)c3ccc(C)cc32)cc1 (stereo not drawn)	-3.88%
COc1ccc2c(c1)c(C(C)=O)c(C)n2-c1cccc(C(F)(F)F)c1	5.17%
Cc1ccc(NC(=O)Cn2cnc3ccccc3c2=O)cc1	2.22%
CCOC(=O)C1CCCN(C2CCN(C)CC2)C1 (stereo not drawn)	-8.8%
COc1ccc(OC)c(-c2c(C)sc(N)[n+]2C)c1	1.88%
CC(=O)N/C(=C\c1ccccc1)C(=O)Nc1ccc(O)cc1	0.0345%
